The values that follow come from a collection of fitness landscapes (doi:10.1126/science.1257360).

To fix the notation:
B1: PhoQ; a variant is named by its letters at X, in order, P23837 (parent)
chain: MKKLLRLFFPLSLRVRFLLATAAVVLVLSLAYGMVALIGYSVSFDKTTFRLLRGESNLFYTLAKWENNKLHVELPENIDKQSPTMTLIYDENGQLLWAQRDVPWLMKMIQPDWLKSNGFHEIEADVNDTSLLLSGDHSIQQQLQEVREDDDDAEMTHSVAVNVYPATSRMPKLTIVVVDTIPVELKSSYMVWSWFIYVLSANLLLVIPLLWVAAWWSLRPIEALAKEVRELEEHNRELLNPATTRELTSLVRNLNRLLKSERERYDKYRTTLTDLTHSLKTPLXXLQXXLRSLRSEKMSVSDAEPVMLEQISRISQQIGYYLHRASMRGGTLLSRELHPVAPLLDNLTSALNKVYQRKGVNISLDISPEISFVGEQNDFVEVMGNVLDNACKYCLEFVEISARQTDEHLYIVVEDDGPGIPLSKREVIFDRGQRVDTLRPGQGVGLAVAREITEQYEGKIVAGESMLGGARMEVIFGRQHSAPKDE

This is one part of the list.

In this assay the parent is B1. The assay is described as follows: enrichment ratio after two sorts for PhoP signalling (ratio (wild type AVST 3.29)); higher = more functional. The conditions noted are these: with PhoP (E. coli).
For LDEP, the enrichment ratio is at most 0.25.

Take VRIW: the enrichment ratio was at most 0.25.

Consider ETDL, for which the enrichment ratio is at most 0.25.

Take TMWE: the enrichment ratio was at most 0.25.

SHAK: the enrichment ratio is at most 0.25.

With SRLY, the enrichment ratio is at most 0.25.

On to FVWR, for which the enrichment ratio is at most 0.25.

Turning to NNVG, the enrichment ratio is at most 0.25.

For the variant WEYL, the enrichment ratio was at most 0.25.

Consider LENY, for which the enrichment ratio was at most 0.25.

For TVPL, the enrichment ratio was found to be 0.544.

Consider KGFF, for which the enrichment ratio was at most 0.25.

For the variant VYTR, the enrichment ratio is at most 0.25.

Take KSWF: the enrichment ratio is at most 0.25.

For the variant IHPF, the enrichment ratio was at most 0.25.

Regarding WTHI, the enrichment ratio was at most 0.25.

In the case of KIMY, the enrichment ratio is at most 0.25.

Turning to YVTK, the enrichment ratio is at most 0.25.

Take GKNI: the enrichment ratio is at most 0.25.

Consider YRVD, for which the enrichment ratio is at most 0.25.

Consider WLCK, for which the enrichment ratio was at most 0.25.

In the case of VVML, the enrichment ratio came to 0.689.

Regarding FWCT, the enrichment ratio was at most 0.25.

With QLVM, the enrichment ratio was at most 0.25.

Turning to DCSD, the enrichment ratio was at most 0.25.

For ANRA, the enrichment ratio is at most 0.25.

Regarding MCCQ, the enrichment ratio was 0.422.

Take KLFF: the enrichment ratio is at most 0.25.

FAGR: the enrichment ratio is at most 0.25.

In the case of DGQS, the enrichment ratio was at most 0.25.

Take SADT: the enrichment ratio was at most 0.25.

Regarding RNAT, the enrichment ratio was at most 0.25.

Turning to HPDK, the enrichment ratio was at most 0.25.

Take HILG: the enrichment ratio was at most 0.25.

In the case of AEWY, the enrichment ratio was 6.65.

IDRR: the enrichment ratio was at most 0.25.

On to TYDA, for which the enrichment ratio is at most 0.25.

For the variant WYSS, the enrichment ratio is at most 0.25.

Turning to SHTI, the enrichment ratio came to 1.6.

As to IPPL, the enrichment ratio is at most 0.25.

For the variant WIYI, the enrichment ratio was at most 0.25.

As to SYCK, the enrichment ratio is at most 0.25.

For the variant AMSC, the enrichment ratio is 4.85.

Regarding PPEC, the enrichment ratio was at most 0.25.

With YNMD, the enrichment ratio is at most 0.25.

Regarding WDRV, the enrichment ratio was at most 0.25.

On to RGAS, for which the enrichment ratio was at most 0.25.

As to MVYN, the enrichment ratio amounted to 3.12.

Turning to NTHD, the enrichment ratio was at most 0.25.

For VIAQ, the enrichment ratio is at most 0.25.

Regarding ECGT, the enrichment ratio was at most 0.25.

Regarding TDEN, the enrichment ratio was at most 0.25.

On to TIWF, for which the enrichment ratio is at most 0.25.

For SHTK, the enrichment ratio is at most 0.25.

As to SVIK, the enrichment ratio was at most 0.25.

Turning to LSLY, the enrichment ratio is at most 0.25.

On to NFVM, for which the enrichment ratio was at most 0.25.

As for SISS, the enrichment ratio was 10.

Regarding EYHK, the enrichment ratio was at most 0.25.

With PVTK, the enrichment ratio is at most 0.25.

Take KRDI: the enrichment ratio is at most 0.25.

For the variant FESG, the enrichment ratio was at most 0.25.

With YQSV, the enrichment ratio is at most 0.25.

Consider LWKS, for which the enrichment ratio was at most 0.25.

For NTPQ, the enrichment ratio was at most 0.25.

Take YRVA: the enrichment ratio was at most 0.25.

As to NCCF, the enrichment ratio was at most 0.25.

Turning to EHCW, the enrichment ratio was at most 0.25.

Regarding TNMG, the enrichment ratio was at most 0.25.

As for QMNA, the enrichment ratio is 3.16.

In the case of NMME, the enrichment ratio is at most 0.25.

WAFG: the enrichment ratio was at most 0.25.

Consider AWFI, for which the enrichment ratio was at most 0.25.

With AKAQ, the enrichment ratio was found to be 7.28.

As for WYRR, the enrichment ratio is at most 0.25.

RLGK: the enrichment ratio was at most 0.25.

As for LQNY, the enrichment ratio was at most 0.25.

In the case of QVMA, the enrichment ratio was at most 0.25.

Take KEQM: the enrichment ratio was at most 0.25.

As for KQYH, the enrichment ratio is at most 0.25.

TIHW: the enrichment ratio was at most 0.25.

With NIWP, the enrichment ratio was at most 0.25.

With ATFT, the enrichment ratio is at most 0.25.

With LLTW, the enrichment ratio was at most 0.25.

As for VKLR, the enrichment ratio was at most 0.25.

NPHH: the enrichment ratio was at most 0.25.

For the variant TYHD, the enrichment ratio was at most 0.25.

QKYR: the enrichment ratio is at most 0.25.

As for YPVS, the enrichment ratio is at most 0.25.

In the case of NIGF, the enrichment ratio was at most 0.25.

As for THVP, the enrichment ratio was at most 0.25.

Consider WTST, for which the enrichment ratio was at most 0.25.

Take IKCC: the enrichment ratio was at most 0.25.

Take DNAC: the enrichment ratio was at most 0.25.

As for YKSR, the enrichment ratio was at most 0.25.

FKSD: the enrichment ratio was at most 0.25.

Turning to NLKS, the enrichment ratio is at most 0.25.

Take FWEK: the enrichment ratio was at most 0.25.

VAWS: the enrichment ratio is at most 0.25.

Regarding LSII, the enrichment ratio is at most 0.25.

On to RAFH, for which the enrichment ratio was at most 0.25.

For the variant AGVY, the enrichment ratio is 18.3.

In the case of QQQY, the enrichment ratio was at most 0.25.

HGMS: the enrichment ratio is at most 0.25.

Consider IPKR, for which the enrichment ratio was at most 0.25.

For PIYD, the enrichment ratio was at most 0.25.

Regarding YPMD, the enrichment ratio is at most 0.25.

For WAWI, the enrichment ratio was at most 0.25.

YCSM: the enrichment ratio was at most 0.25.

In the case of GFNT, the enrichment ratio is at most 0.25.

As to RVNI, the enrichment ratio was at most 0.25.

As to IRHV, the enrichment ratio is at most 0.25.

GKSQ: the enrichment ratio is at most 0.25.

Regarding ICCP, the enrichment ratio is at most 0.25.

Consider WPNQ, for which the enrichment ratio is at most 0.25.

Regarding NRRM, the enrichment ratio was at most 0.25.

As to LAYV, the enrichment ratio stood at 2.7.

As for EIKN, the enrichment ratio was at most 0.25.

Take HCFS: the enrichment ratio was at most 0.25.

For the variant QTRF, the enrichment ratio was at most 0.25.

As for YNYE, the enrichment ratio was at most 0.25.

Turning to NPWR, the enrichment ratio is at most 0.25.

DIFI: the enrichment ratio is at most 0.25.

RRYS: the enrichment ratio is at most 0.25.

Take WGFR: the enrichment ratio was at most 0.25.

In the case of HFTS, the enrichment ratio was at most 0.25.

As to IKFV, the enrichment ratio is at most 0.25.

For the variant RKNQ, the enrichment ratio was at most 0.25.

As to KFAM, the enrichment ratio was at most 0.25.

In the case of PFGN, the enrichment ratio is at most 0.25.

EVVH: the enrichment ratio is at most 0.25.

For the variant SNRL, the enrichment ratio is at most 0.25.

IKLY: the enrichment ratio was at most 0.25.

Consider NFMD, for which the enrichment ratio is at most 0.25.

As to MCFL, the enrichment ratio was 7.86.

SHRC: the enrichment ratio is at most 0.25.

Take VKFW: the enrichment ratio was at most 0.25.

Take ENDM: the enrichment ratio is at most 0.25.

Take KGLV: the enrichment ratio is at most 0.25.

In the case of HYYE, the enrichment ratio was at most 0.25.

Consider NYNR, for which the enrichment ratio is at most 0.25.

Turning to PVSI, the enrichment ratio is at most 0.25.

Turning to WEAY, the enrichment ratio was at most 0.25.

Take TYAE: the enrichment ratio is at most 0.25.

For the variant QQAA, the enrichment ratio is at most 0.25.

On to AFRH, for which the enrichment ratio was at most 0.25.

For ANAF, the enrichment ratio was 5.

Take RTLL: the enrichment ratio is at most 0.25.

As for RDFA, the enrichment ratio was at most 0.25.

In the case of YNWC, the enrichment ratio is at most 0.25.

With TKAT, the enrichment ratio turned out to be 14.5.

As to LNCD, the enrichment ratio was at most 0.25.

Take RMNM: the enrichment ratio is at most 0.25.

VHVP: the enrichment ratio was at most 0.25.

With NEGK, the enrichment ratio is at most 0.25.

Regarding DKVV, the enrichment ratio is at most 0.25.

For the variant ILHG, the enrichment ratio is at most 0.25.

In the case of REES, the enrichment ratio is at most 0.25.

In the case of DSYG, the enrichment ratio was at most 0.25.

As for ANTQ, the enrichment ratio came to 6.43.

Take TWRR: the enrichment ratio was at most 0.25.

As for FKGN, the enrichment ratio is at most 0.25.

QCSL: the enrichment ratio is 7.28.

With LHCE, the enrichment ratio was at most 0.25.

As for HAAF, the enrichment ratio is at most 0.25.

For PKCE, the enrichment ratio is at most 0.25.

VILG: the enrichment ratio was found to be 0.779.

As to ESFC, the enrichment ratio came out at 2.33.

For VRHQ, the enrichment ratio was at most 0.25.

Take QQID: the enrichment ratio is at most 0.25.

Regarding DQRC, the enrichment ratio was at most 0.25.

For KTAK, the enrichment ratio is at most 0.25.

As for LHVI, the enrichment ratio was at most 0.25.

Take MEAG: the enrichment ratio was at most 0.25.

As for IPMA, the enrichment ratio was at most 0.25.

EVGY: the enrichment ratio was at most 0.25.

FCIH: the enrichment ratio is at most 0.25.

For PEYT, the enrichment ratio was at most 0.25.

Take EYGD: the enrichment ratio is at most 0.25.

In the case of MFSL, the enrichment ratio was at most 0.25.

Turning to WPQF, the enrichment ratio is at most 0.25.

As for QHYY, the enrichment ratio is at most 0.25.

Consider MRPI, for which the enrichment ratio was at most 0.25.

SQVA: the enrichment ratio turned out to be 4.56.

In the case of DYNM, the enrichment ratio was at most 0.25.

TNIE: the enrichment ratio is at most 0.25.

On to SWDH, for which the enrichment ratio was at most 0.25.

In the case of DLML, the enrichment ratio is at most 0.25.

For PGVS, the enrichment ratio is at most 0.25.

Consider SVRS, for which the enrichment ratio was at most 0.25.

For SAKD, the enrichment ratio is at most 0.25.

For AIVW, the enrichment ratio was at most 0.25.

Turning to MGAL, the enrichment ratio came out at 15.5.

Take VFDN: the enrichment ratio was at most 0.25.

As to TKPY, the enrichment ratio is at most 0.25.
